# ± gives the standard error. For part of these data: Variants at the background level are over-represented here.
# B1: glmS ribozyme (parent)
# chain: AUAAAAGCGCCAGAACUACAGAAAUGUAGUUGACGAGGAGGAGGUUUAUCGAAUUUUCGGCGGAUGCCUCCAAA
# Variants of: B1
# Assay: self-cleavage kobs at 2500 uM GlcN6P; higher = faster cleavage; RNA array
# Settings: with glucosamine-6-phosphate
# In short: (§1)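 Weighted Michaelis–Menten fits across concentrations supplied kcat and KM, based on kobs from one- or two-exponential decay fits to normalised per-tile medians. The data came from barcoded ribozyme variants transcribed in situ by E. coli RNA polymerase on sequenced MiSeq chips and tracked at 37 °C by a hybridised Cy3 probe. Glucosamine-6-phosphate (40 μM to 10 mM) in HEPES/KCl/Mg(OAc)2 buffer was flowed in.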
row,Variant,self-cleavage kobs at 2500 uM GlcN6P [s⁻¹]
1,AUAAAAGCGCCAUAACUACAGAAAUGUAGUGGACGACGAGGAGGUUUCUCGAAUUUUCGGCGGAUGCCUCCAAA [G13U U31G G37C A48C],< 1e-05
2,AUAAAAGCGCCAGACCUACAGAAAUGUAGUUGACAAGGAAGAGGUUUAUCGAAUUUUCGGCGUAUGCCUCCAAA [A15C G35A G40A G63U],< 1e-05
3,AUAAAAGCGCCACAACUACAGAAAUGUACUUGACGAGGAGGAGGUUUAUCGAAUAUUCGGCGGAUGCCUCCAAA [G13C G29C U55A],8.97e-05 ± 2.5e-05
4,AUAAAAGCGCCAGCACUACAGAAAUGUAGUUGACGGGGAUGAGGUUUAUCGAUUUCUCGGCGGAUGCCUCCAAA [A14C A36G G40U A53U U56C],< 1e-05
5,AUAAAAGCGCCAGGACUACAGAAAUGUAGUUGACGAGGAGGGGGUUAAACGAAUCUUCGGCGGAUGCCUCCAAA [A14G A42G U47A U49A U55C],< 1e-05
6,AUAAAAGCGCCAUAACUACAGAAAUGUAGUUGACGAGGAGGAGGUAUAUCGAAUUCUCGGCGGAUGCCUGUAAA [G13U U46A U56C C70G C71U],< 1e-05
7,AUAAAAGCGCCAGAUCUACAGAAAUGUAGUUGACGAGGAGGAGGUUUAUCGGAUUUGCGGCCGCUGCCUCCAAA [A15U A52G U57G G62C A64C],< 1e-05
8,AUAAAAGCGCCAGAGCUACAGAAAUGUAGAUGACUAGGAGGAGGUUUAUCGAAUUUUCUGCGGAUGCCUCCAAA [A15G U30A G35U G59U],< 1e-05
9,AUAAAAGCGCCAUAACUACAGAAAUGUAGUUGACGAGGAGGAGGUUUAUCGCAUUUUCGGCGGAUGCCUUCAAA [G13U A52C C70U],< 1e-05
10,AUAAAAGCGCCAGUACUACAGAAAUGUAGUUGACGAGGAGGAGGUUUAUCGAAUUUUCGGCGCACGCCUCCAAA [A14U G63C U65C],< 1e-05
11,AUAAAAGCGCCAGACCUACAGAAAUGUAGUUGACGAGUAGGAGGUUUAUCGAAUUUUCGGCCGAUUCCUCCAAA [A15C G38U G62C G66U],< 1e-05
12,AUAAAAGCGCCAGACCUACAGAAAUGUAGUUGACUAGGAGGAGGUGUAUCGAAUUUUCGGCGGAUGCCUCUAAA [A15C G35U U46G C71U],< 1e-05
13,AUAAAAGCGCCAGAGCUACAGAAAUGUAGUUGACGAGGAGGAGGUUUAUCGAAUUUUCGGCGGCUGCCUCUAAA [A15G A64C C71U],7.46e-05 ± 1.9e-05
14,AUAAAAGCGCCACAACUACAGAAAUGUAGUUGACGAGGAGGAGGUUUAUCGAAUUUUCGGAGGAUGCGUCCAAA [G13C C61A C68G],< 1e-05
15,AUAAAAGCGCCAGGACUACAGAAAUGUAGUUUACGAGGAGGAGGUUUAUCGAAUUUGCGGCGGUUGCCUCCAAA [A14G G32U U57G A64U],< 1e-05
16,AUAAAAGCGCCAGCACUACAGAAAUGUAGUUGACGAGGAGGAGGUUAAUCGAAUUUGCGUCGGAUGCCUCCAAA [A14C U47A U57G G60U],< 1e-05
17,AUAAAAGCGCCAGUACUACAGAAAUGUAGUUGACGAGGAGGAGGGUAAUCGAACUUUCGGCUGAUGCCUCCAAA [A14U U45G U47A U54C G62U],< 1e-05

row,Variant,self-cleavage kobs at 2500 uM GlcN6P [s⁻¹]
1,AUAAAAGCGCCGGAACUACAGAAAUGUAGUUGACGAGGAGGAGGUUUAUCGAAUUGUCGGCGGAUGCCUGCAAA [A12G U56G C70G],0.000113 ± 3e-05
2,AUAAAAGCGCCAGGACUACAGAAAUGUAGUUAACGAGGAGGAGGUUUAUCGAAUUUUCGUCGGACGCCUCCAAA [A14G G32A G60U U65C],< 1e-05
3,AUAAAAGCGCCUGAACUACAGAAAUGUACUUAACGAGGAGGUGGUUUAUCGAAUUUUCGGCCGAUGCCUCCAAA [A12U G29C G32A A42U G62C],< 1e-05
4,AUAAAAGCGCCAUAACUACAGAAAUGUAGUUGACGAGGAGGCGGUUUAUCGAAUUUUCGGCGGAUGCCACCAAA [G13U A42C U69A],< 1e-05
5,AUAAAAGCGCCAGUACUACAGAAAUGUAGUAGACGAGGAGGAGGUUUAUCGAAUUUAUCGCGGAUGCCUCCAAA [A14U U31A U57A C58U G59C],< 1e-05
6,AUAAAAGCGCCAGGACUACAGAAAUGUAGUUGACGAGGAGGAGGUUUAUCCAAUUUUCGGCCGAAGCGUACAAA [A14G G51C G62C U65A C68G C70A],< 1e-05
7,AUAAAAGCGCCAGAUCUACAGAAAUGUAGUUGACGGGGUGGAGGUUUAUCGAAUUUUCGGCGGAUGCCUCCAAA [A15U A36G A39U],< 1e-05
8,AUAAAAGCGCCUGAACUACAGAAAUGUAGUUCACGAGGAGGAGGUUUAUCGAAUUUUCGGCGGAUGCCUUCAAA [A12U G32C C70U],< 1e-05
9,AUAAAAGCGCCUGAACUACAGAAAUGUAGUUGACGAGGAGGAGGUUGAUCGAAUUUUCGGCGGAGGCCUCCAAA [A12U U47G U65G],0.00179 ± 0.0004
10,AUAAAAGCGCCUGAACUACAGAAAUGUAGUUGACGAGGAGGAGUUUUAUCGAAUUUUCGGCGGAUGCCUUCAAA [A12U G44U C70U],5.27e-05 ± 1.8e-05
11,AUAAAAGCGCCAAAACUACAGAAAUGUAGUUGACGACGAGGAGGUUUAUCGAAAUUUCGGCGGAUGCCUCCAAA [G13A G37C U54A],< 1e-05
12,AUAAAAGCGCCAGACCUACAGAAAUGUAGUUGACGAGGAGGAGGUUUAUCGAAUUUUCGGAUGAUGCCUCGAAA [A15C C61A G62U C71G],< 1e-05
13,AUAAAAGCGCCUGAUCUACAGAAAUGUAGUUGACGAGGAGGAGGUUUAUAAAAUUUUCCGCGGAUGCCUCCAAA [A12U A15U C50A G51A G59C],< 1e-05
14,AUAAAAGCGCCAGUACUACAGAAAUGUAGUUGACGACGAGGCGGUUUAUCGAAUUUUCGGCGGAUGCCUCCAAA [A14U G37C A42C],< 1e-05
15,AUAAAAGCGCCAAAACUACAGAAAUGUAGUUGACGAGGAGGAGUUUUAUCGAAUUUUCGGCGGAUGCCUCAAAA [G13A G44U C71A],< 1e-05
16,AUAAAAGCGCCAGACCUACAGAAAUGUAGUUGACGAGGAGGAGGUUUGUCGUAUUUUCGGCGGAUGUCUCCAAA [A15C A48G A52U C67U],< 1e-05
17,AUAAAAGCGCCAGGACUACAGAAAUGUAGUUGACGAGGAGGAGGUUUAUCGAAUUUUCGCCAGAUGCCUCCAAA [A14G G60C G62A],< 1e-05

# Variants of: B1
# Assay: self-cleavage kobs at 10000 uM GlcN6P; higher = faster cleavage; RNA array
# Settings: with glucosamine-6-phosphate
# In short: as §1
row,Variant,self-cleavage kobs at 10000 uM GlcN6P [s⁻¹]
1,AUAAAAGCGCCGGAACUACAGAAAUGUAGUUGACGAGGAGGAGGUUUAUCGAAUUGUCGGCGGAUGCCUGCAAA [A12G U56G C70G],7.52e-05 ± 2e-05
2,AUAAAAGCGCCAGAUCUACAGAAAUGUAGUUGACGGGGUGGAGGUUUAUCGAAUUUUCGGCGGAUGCCUCCAAA [A15U A36G A39U],< 1e-05
